The assay has as its target HCV NS3/NS4A protease (strain 1a) (Hepatitis C virus genotype 1a, UniProt P27958). The experiment in a line: biochemical. The note with it: Table 5; HCV NS3/NS4A protease, spectrophotometric assay, 30° C., pH 6.5; read-out: Ki* Range.
As to `CCCC(NC(=O)[C@@H]1[C@H]2[C@@H](CN1C(=O)[C@@H](NC(=O)OC(C)C)C(C)(C)C)C2(C)C)C(=O)C(N)=O` (stereo partly drawn), the Ki fell in the range of 101 to 1000 nM. The figure for `CC(C)(C)CC(NC(=O)[C@@H]1[C@@H]2[C@H](CN1C(=O)[C@@H](NC(=O)OC(C)(C)C)C(C)(C)C)C2(C)C)C(=O)C(N)=O` (stereo partly drawn) is greater than 1000 nM; for `CC(C)C(NC(=O)OC(C)(C)C)C(=O)N1C[C@H]2[C@@H]([C@H]1C(=O)NC(CC1CC1)C(=O)C(N)=O)C2(C)C` (stereo partly drawn) it is 101 to 1000 nM. The figure for `CC(C)(C)OC(=O)C[C@H](C(=O)N1C[C@H]2[C@@H]([C@H]1C(=O)NC(CCC1CC1)C(=O)C(N)=O)C2(C)C)C1CCCCC1` (stereo partly drawn) is 101 to 1000 nM; for `CC(C)OC(=O)N[C@H](C(=O)N1C[C@H]2[C@@H](C1C(=O)NC(CC1CC1)C(=O)C(N)=O)C2(C)C)C1CCCCC1` (stereo partly drawn) it is 1 to 100 nM. With `CC(C)(C)OC(=O)N[C@H](C(=O)N1C[C@H]2[C@@H]([C@H]1C(=O)NC1(C(=O)C(N)=O)CC1)C2(C)C)C1CCCCC1` the figure was greater than 1000 nM; with `CCCC(NC(=O)[C@@H]1[C@@H]2[C@H](CN1C(=O)[C@@H](NC(=O)NC(C)(C)C)C(C)(C)C)C2(C)C)C(=O)C(N)=O` (stereo partly drawn), 101 to 1000 nM; with `COC(=O)C(=O)C1(NC(=O)[C@@H]2[C@@H]3[C@H](CN2C(=O)[C@@H](NC(=O)OC(C)(C)C)C(C)(C)C)C3(C)C)CC1`, greater than 1000 nM. Regarding `CCCCC(NC(=O)[C@@H]1CC(C)(C)CN1C(=O)[C@@H](NC(=O)OC(C)(C)C)C(C)(C)C)C(=O)C(=O)OC` (stereo partly drawn), the Ki is greater than 1000 nM.

Take `CCC[C@@H](NC(=O)C1C2CCC(C2)N1C(=O)[C@H](NC(=O)OC(C)(C)C)C(C)(C)C)C(=O)C(=O)OC(C)(C)C` (stereo partly drawn): the inhibition constant Ki is greater than 1000 nM. `CCC[C@@H](NC(=O)C1C2CCC(C2)N1C(=O)[C@@H](NC(=O)OC(C)(C)C)C(C)(C)C)C(=O)C(=O)OC(C)(C)C` (stereo partly drawn): the Ki was greater than 1000 nM.

For the compound `CCCC(NC(=O)[C@@H]1C2CCC(C2)N1C(=O)[C@H](NC(=O)OC(C)(C)C)C1CCCCC1)C(=O)C(=O)OC` (stereo partly drawn), the Ki is greater than 1000 nM. Take `CCCC(NC(=O)[C@@H]1C2CCC(C2)N1C(=O)[C@H](NC(=O)OC(C)(C)C)C(C)(C)C)C(=O)C(=O)OC` (stereo partly drawn): the inhibitory constant (Ki) was greater than 1000 nM. The figure for `COC(=O)C(=O)C(CC1CC1)NC(=O)[C@@H]1[C@@H]2[C@H](CN1C(=O)[C@@H](NC(=O)OC(C)(C)C)C(C)(C)C)C2(C)C` (stereo partly drawn) is greater than 1000 nM; for `CCCC(NC(=O)[C@@H]1CC(C)(C)CN1C(=O)[C@H](NC(=O)OC(C)(C)C)C(C)(C)C)C(=O)C(=O)OC(C)(C)C` (stereo partly drawn) it is greater than 1000 nM. The figure for `CCCC(NC(=O)C1C2CCC(C2)N1C(=O)C(NC(=O)OC(C)(C)C)C1CCCCC1)C(=O)C(=O)OCc1ccccc1` (stereo not drawn) is greater than 1000 nM; for `CC(C)(C)OC(=O)N[C@H](C(=O)N1C[C@H]2[C@@H]([C@H]1C(=O)NC1(C(=O)C(=O)O)CC1)C2(C)C)C(C)(C)C` it is greater than 1000 nM; for `CC(C)(C)OC(=O)N[C@H](C(=O)N1C[C@H]2[C@@H]([C@H]1C(=O)NC(CC1CC1)C(=O)C(=O)O)C2(C)C)C(C)(C)C` (stereo partly drawn) it is 101 to 1000 nM. The figure for `COC(=O)C(=O)C(CC1CC1)NC(=O)[C@@H]1[C@@H]2[C@H](CN1C(=O)[C@@H](NC(=O)OC(C)(C)C)C1CCCCC1)C2(C)C` (stereo partly drawn) is greater than 1000 nM. On to `CC(C)(C)OC(=O)N[C@H](C(=O)N1C[C@H]2[C@@H]([C@H]1C(=O)NC(CC1CC1)C(=O)C(=O)O)C2(C)C)C1CCCCC1` (stereo partly drawn), for which the Ki lay in the range of 101 to 1000 nM. Regarding `COC(=O)C(=O)C(CC1CC1)NC(=O)[C@@H]1[C@@H]2[C@H](CN1C(=O)[C@@H](NC(=O)OC(C)(C)C)C1CCC(F)(F)CC1)C2(C)C` (stereo partly drawn), the inhibition constant Ki is greater than 1000 nM. With `CC(C)(C)OC(=O)N[C@H](C(=O)N1C[C@H]2[C@@H]([C@H]1C(=O)NC(CC1CC1)C(=O)C(=O)O)C2(C)C)C1CCC(F)(F)CC1` (stereo partly drawn) the figure was 101 to 1000 nM. With `CCCC(NC(=O)C1[C@H]2[C@@H](CN1C(=O)C(NC(=O)OC(C)(C)C)C1CCC(F)(F)CC1)C2(C)C)C(=O)C(=O)O` (stereo partly drawn) the figure was greater than 1000 nM; with `CCCC(NC(=O)[C@@H]1CC(c2ccccc2)CN1C(=O)OC(C)(C)C)C(=O)C(=O)OC` (stereo partly drawn), greater than 1000 nM; with `COC(=O)C(=O)C(CC1CC1)NC(=O)[C@@H]1[C@@H]2[C@H](CN1C(=O)CC(C)(C)C)C2(C)C` (stereo partly drawn), greater than 1000 nM. The figure for `CC(C)(C)CC(=O)N1C[C@H]2[C@@H]([C@H]1C(=O)NC(CC1CC1)C(=O)C(=O)O)C2(C)C` (stereo partly drawn) is greater than 1000 nM; for `COC(=O)C(=O)C(CC1CC1)NC(=O)[C@@H]1[C@@H]2[C@H](CN1C(=O)CC1CCCCC1)C2(C)C` (stereo partly drawn) it is greater than 1000 nM. As for `CC1(C)[C@@H]2[C@@H](C(=O)NC(CC3CC3)C(=O)C(=O)O)N(C(=O)CC3CCCCC3)C[C@@H]21` (stereo partly drawn), the Ki is greater than 1000 nM. With `COC(=O)C(=O)C(CC1CC1)NC(=O)[C@@H]1[C@@H]2[C@H](CN1C(=O)[C@@H](NC(=O)OC(C)(C)C)C1CCCC1)C2(C)C` (stereo partly drawn) the figure was greater than 1000 nM; with `CC(C)(C)OC(=O)N[C@H](C(=O)N1C[C@H]2[C@@H]([C@H]1C(=O)NC(CC1CC1)C(=O)C(=O)O)C2(C)C)C1CCCC1` (stereo partly drawn), 101 to 1000 nM; with `C=CCC(NC(=O)[C@@H]1[C@@H]2[C@H](CN1C(=O)[C@@H](NC(=O)OC(C)(C)C)C1CCCCC1)C2(C)C)C(=O)C(=O)OC` (stereo partly drawn), greater than 1000 nM. The figure for `C=CCC(NC(=O)[C@@H]1[C@@H]2[C@H](CN1C(=O)[C@@H](NC(=O)OC(C)(C)C)C1CCCCC1)C2(C)C)C(=O)C(=O)O` (stereo partly drawn) is 101 to 1000 nM; for `COC(=O)C(=O)C(CC(C)C)NC(=O)[C@@H]1[C@@H]2[C@H](CN1C(=O)[C@@H](NC(=O)OC(C)(C)C)C1CCCCC1)C2(C)C` (stereo partly drawn) it is greater than 1000 nM; for `CC(C)CC(NC(=O)[C@@H]1[C@@H]2[C@H](CN1C(=O)[C@@H](NC(=O)OC(C)(C)C)C1CCCCC1)C2(C)C)C(=O)C(=O)O` (stereo partly drawn) it is greater than 1000 nM. The figure for `COC(=O)C(=O)C(CC(C)(C)C)NC(=O)[C@@H]1[C@@H]2[C@H](CN1C(=O)[C@@H](NC(=O)OC(C)(C)C)C(C)(C)C)C2(C)C` (stereo partly drawn) is greater than 1000 nM.

On to `CC(C)(C)OC(=O)N[C@H](C(=O)N1C[C@@H]2[C@H]([C@H]1C(=O)NC(CC1CC1)C(=O)C(=O)O)C2(C)C)C1Cc2ccccc2C1` (stereo partly drawn), for which the Ki lay in the range of 101 to 1000 nM. With `COC(=O)C(=O)C(CC1CC1)NC(=O)[C@@H]1[C@H]2[C@@H](CN1C(=O)[C@@H](NC(=O)OC(C)(C)C)C1Cc3ccccc3C1)C2(C)C` (stereo partly drawn) the figure was greater than 1000 nM; with `CC(C)CC(NC(=O)[C@@H]1[C@H]2[C@@H](CN1C(=O)[C@@H](NC(=O)OC(C)(C)C)C1Cc3ccccc3C1)C2(C)C)C(=O)C(=O)O` (stereo partly drawn), greater than 1000 nM. With `COC(=O)C(=O)C(CC(C)C)NC(=O)[C@@H]1[C@H]2[C@@H](CN1C(=O)[C@@H](NC(=O)OC(C)(C)C)C1Cc3ccccc3C1)C2(C)C` (stereo partly drawn) the figure was greater than 1000 nM.

As for `CCCC(NC(=O)[C@@H]1CC(c2ccccc2)CN1C(=O)OC(C)(C)C)C(=O)C(=O)O` (stereo partly drawn), the inhibition constant Ki was greater than 1000 nM. The figure for `CCCC(NC(=O)[C@@H]1C2CCC(C)(C)OC2CN1C(=O)[C@@H](NC(=O)OC(C)(C)C)C(C)(C)C)C(=O)C(=O)OC` (stereo partly drawn) is greater than 1000 nM. The figure for `COC(=O)C(=O)C(CC1CC1)NC(=O)[C@@H]1[C@@H]2[C@H](CN1C(=O)[C@@H](NC(=O)OC(C)(C)C)C(C)C)C2(C)C` (stereo partly drawn) is greater than 1000 nM; for `CC(C)[C@H](NC(=O)OC(C)(C)C)C(=O)N1C[C@H]2[C@@H]([C@H]1C(=O)NC(CC1CC1)C(=O)C(=O)O)C2(C)C` (stereo partly drawn) it is 101 to 1000 nM; for `COC(=O)C(=O)C(CCC1CC1)NC(=O)[C@@H]1[C@@H]2[C@H](CN1C(=O)[C@@H](NC(=O)OC(C)(C)C)C1CCCCC1)C2(C)C` (stereo partly drawn) it is greater than 1000 nM.

For `CC(C)(C)OC(=O)N[C@H](C(=O)N1C[C@H]2[C@@H]([C@H]1C(=O)NC(CCC1CC1)C(=O)C(=O)O)C2(C)C)C1CCCCC1` (stereo partly drawn), the inhibition constant Ki was 1 to 100 nM. With `COC(=O)C(=O)C1(NC(=O)[C@@H]2[C@@H]3[C@H](CN2C(=O)[C@@H](NC(=O)OC(C)(C)C)C2CCCCC2)C3(C)C)CC1`, the inhibitory constant (Ki) is greater than 1000 nM. The figure for `CC(C)(C)OC(=O)N[C@H](C(=O)N1C[C@H]2[C@@H]([C@H]1C(=O)NC1(C(=O)C(=O)O)CC1)C2(C)C)C1CCCCC1` is greater than 1000 nM; for `CCCC(NC(=O)[C@@H]1[C@@H]2CCC(C)(C)OC2CN1C(=O)[C@@H](NC(=O)OC(C)(C)C)C(C)(C)C)C(=O)C(=O)O` (stereo partly drawn) it is greater than 1000 nM; for `C=CCCCC(NC(=O)[C@@H]1[C@@H]2[C@H](CN1C(=O)[C@@H](NC(=O)OC(C)(C)C)C1CCCCC1)C2(C)C)C(=O)C(=O)OC` (stereo partly drawn) it is greater than 1000 nM. With `C=CCCCC(NC(=O)[C@@H]1[C@@H]2[C@H](CN1C(=O)[C@@H](NC(=O)OC(C)(C)C)C1CCCCC1)C2(C)C)C(=O)C(=O)O` (stereo partly drawn) the figure was 101 to 1000 nM; with `COC(=O)C(=O)C1(NC(=O)C2[C@@H]3[C@H](CN2C(=O)[C@@H](NC(=O)OC(C)(C)C)C(C)C)C3(C)C)CC1` (stereo partly drawn), greater than 1000 nM.

`CC(C)[C@H](NC(=O)OC(C)(C)C)C(=O)N1C[C@H]2[C@@H](C1C(=O)NC1(C(=O)C(=O)O)CC1)C2(C)C` (stereo partly drawn): the inhibition constant Ki was greater than 1000 nM. With `COC(=O)C(=O)C(CC1CC1)NC(=O)[C@@H]1[C@@H]2[C@H](CN1C(=O)[C@@H](NC(=O)OC(C)C)C1Cc3ccccc3C1)C2(C)C` (stereo partly drawn) the figure was greater than 1000 nM; with `CC(C)OC(=O)N[C@H](C(=O)N1C[C@H]2[C@@H]([C@H]1C(=O)NC(CC1CC1)C(=O)C(=O)O)C2(C)C)C1Cc2ccccc2C1` (stereo partly drawn), 101 to 1000 nM. The figure for `CCC(NC(=O)[C@@H]1[C@@H]2[C@H](CN1C(=O)[C@@H](NC(=O)OC(C)(C)C)C(C)(C)C)C2(C)C)C(=O)C(=O)O` (stereo partly drawn) is greater than 1000 nM; for `CCC(NC(=O)[C@@H]1[C@@H]2[C@H](CN1C(=O)[C@@H](NC(=O)OC(C)(C)C)C(C)(C)C)C2(C)C)C(=O)C(=O)OC` (stereo partly drawn) it is greater than 1000 nM. With `CCC(NC(=O)[C@@H]1[C@@H]2[C@H](CN1C(=O)[C@@H](NC(=O)OC(C)(C)C)C1CCCCC1)C2(C)C)C(=O)C(=O)OC` (stereo partly drawn) the figure was greater than 1000 nM. With `COC(=O)C(=O)C(CC1CCC1)NC(=O)C1C2C(CN1C(=O)[C@@H](NC(=O)NC(C)(C)C)C(C)(C)C)C2(C)C` (stereo partly drawn), the inhibition constant (Ki) was greater than 1000 nM. For `CCCCC(NC(=O)[C@@H]1[C@H]2[C@@H](CN1C(=O)[C@@H](NC(=O)OC(C)(C)C)C(C)(C)C)C2(C)C)C(=O)C(=O)NOC` (stereo partly drawn), the Ki was in the range of 101 to 1000 nM.

In the case of `C=CCNC(=O)C(=O)C(CCC)NC(=O)[C@@H]1[C@H]2[C@@H]3CC[C@@H](C3)[C@H]2CN1C(=O)[C@@H](NC(=O)OCC(C)C)C(C)(C)C` (stereo partly drawn), the inhibition constant Ki is greater than 1000 nM.

Broadly, the Ki is the dissociation constant of the complex between target and ligand, obtained from inhibition or displacement.

These data come from US7592316B2, “Peptides as NS3-serine protease inhibitors of hepatitis C virus” (Schering Corporation, priority 2000, dated 2009).
